Test results: PubChem BioAssay AID493208 (National Center for Advancing Translational Sciences (NCATS), 2011)
The whole screen tested about 44,000 compounds, of which about 340 (0.77%) were called active. About 5% were inconclusive and are not listed. Calls follow the shape of the dose curve; as a rule, active = well fitted inhibition curve with a large enough effect; inconclusive = small, poorly fitted or top-dose-only effect; inactive = flat fitted curve, though single readings scatter. Some of the results follow.

Assay: Acumen qHTS Assay for Inhibitors of the mTORC1 Signaling Pathway in MEF (Tsc2-/-, p53-/-) Cells: Sytravon;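 also: plate controls were DMSO for no effect and rapamycin for full effect; nearly all actives have a fitted effect of over 50% in size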
Conditions: phospho-rpS6 immunofluorescence/PI, 24 h; series mostly up to 38.3 µM; activity change, negative = inhibition: at the top concentration
Outline: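 Compounds act on Tsc2-/-, p53-/- fibroblasts carrying an empty vector for 24 h before fixation and dual staining for phospho-S6 and DNA (propidium iodide). Values are percentages of cells above a rapamycin-defined pS6/PI threshold.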

Activity change, negative = inhibition, inactive:
O=C(CN1C(=O)COc2ccc(S(=O)(=O)N3CCOCC3)cc21)N1CCN(c2ccc(Cl)cc2)CC1 -15.2%, O=S(=O)(NCCc1cn2ccsc2n1)c1ccc(Cl)cc1 -8.95%, CCCCCCc1cc2cc(-c3cn4c(n3)sc3cc(OC)ccc34)c(=O)oc2cc1O -0.916%, O=C(Nc1cccc(Cl)c1)c1cc(S(=O)(=O)N2CCC3(CC2)OCCO3)ccc1F -19.9%, CCN(CCCNC(=O)Cn1ncc2c3ccccc3n(C)c2c1=O)c1cccc(C)c1 -3.02%, Cc1ccccc1C(=O)n1nc(-c2cccnc2)nc1NCc1ccc(F)cc1 5.09%, COc1cc(OC)c(NC(=O)Cn2cnc3c(nc4n3CCCCC4)c2=O)cc1Cl 2.86%, Cc1cc(OCC(=O)Nc2nc3c(s2)CCCC3)cc(C)c1Cl 0.573%, CCOC(=O)c1ccccc1NC(=O)COc1cc(=O)n(CC)c2ccccc12 -2.46%, CCOc1ccccc1NC(=O)Cn1c(=O)n(Cc2ccccc2)c(=O)c2c3c(sc21)CN(C(C)=O)CC3 -4.71%, O=C(CCC1N=C2c3ccccc3N=C(SCc3ccc(Cl)cc3)N2C1=O)NC1CCCCC1 (stereo unspecified) 1.28%, Cc1cccc(C)c1NC(=O)Cn1c(=O)cc(C)c2c(C)nn(-c3cccc(Cl)c3C)c21 -2.33%, Cc1ccc(-n2ncc3c(N4CCCCC4)ncnc32)cc1 11.8%, COc1ccc(NC(=O)CC(C)S(=O)(=O)c2ccc3c(c2)NC(=O)CO3)cc1OC (stereo unspecified) 1.87%, O=C(CN1CCN(C2CCCCC2)C(=O)C1=O)Nc1ccc(Cl)cc1 0.235%, CCC(=O)Nc1ccccc1C(=O)OCc1cc(=O)n2cc(C)sc2n1 9.33%, COc1ccc(OC)c(NC(=O)Cn2c(CCC(=O)O)ccc2-c2ccccc2)c1 5.36%, CC(C)CCN1C(=O)c2ccccc2CC1(C)C(=O)NC1CCCCC1 (stereo unspecified) -6.24%, CC1CC(=O)N(CC(=O)Nc2ccc(OC(F)(F)F)cc2)c2ccccc2S1 (stereo unspecified) -11.1%, CCCN1CCN(C(=O)Cn2ncc3c4ccccc4n(Cc4cccc(Cl)c4)c3c2=O)CC1 0.728%, O=C(Nc1c(C(=O)N2CCN(c3ccccc3)CC2)oc2ccccc12)c1ccccc1F -3.29%, Cc1cccc(N(C)C(=O)c2cc3c(=O)oc4ccc(C)cc4c3s2)c1 -4.46%, CCOc1ccc(-n2nc3ccc(NC(=O)c4ccc(C)cc4C)cc3n2)cc1 0.367%, Cc1ccc(CCNC(=O)c2cc3cc(S(=O)(=O)N4CCCCC4)ccc3n2C)cc1 -0.504%, CCN1CCN(CCCNC(=O)c2cnn(-c3ccc(OC)cc3)c2C2CCN(C(=O)OC(C)(C)C)CC2)CC1 -0.758%, COC(=O)c1ccc(C(=O)OC)c(NC(=O)c2cnn3c(C(F)F)cc(-c4ccc(C)cc4)nc23)c1 -16.9%, CC1=Nc2cc(C(=O)NC3CCCC3)ccc2Sc2ccc(Cl)cc21 -20.1%, CCOC(=O)c1ccc(Nc2nc3ccccc3n3c(C)nnc23)cc1 3.08%, CCOC(=O)c1cccc(NC(=O)CC2C(=O)N(c3ccc(F)cc3)C(=O)N2Cc2cccc(OC)c2)c1 (stereo unspecified) -14.6%, COc1ccc(N(C)S(=O)(=O)c2ccc3c(c2)n(C)c(=O)c(=O)n3C)cc1 -6.08%, CCOc1ccc(-c2noc(CSc3nnc(Cc4ccccc4)n3-c3ccc(F)cc3)n2)cc1 -1.21%, Cc1cccc(N2CCN(c3ncnc4c3cnn4-c3ccc(Cl)cc3)CC2C)c1 (stereo unspecified) 1.36%, COC(=O)c1scc(-c2ccc(C)cc2)c1S(=O)(=O)N1CCN(c2ccccc2F)CC1 -43.5%, O=C(Cn1c(-c2cccs2)cc2cc(F)ccc21)N1CCCCC1 -11.5%, COc1cccc(C(=O)Nc2c3c(nn2-c2ccc(C)cc2C)CS(=O)(=O)C3)c1OC 0%, COc1ccc(CNC(=O)Cn2ncc3c(=O)oc4ccc(C)cc4c32)c(OC)c1 -8.23%, Cc1cc(=O)n2[nH]c(NC(=O)c3cccc(Cl)c3)nc2n1 -6.19%, Cc1c(C(=O)NCc2ccc(OC(C)C)cc2)sc2ncnc(N(C)C3CCCCC3)c12 0.379%, CC1=Nc2cc(C(=O)N3CCCCC3)ccc2Sc2ccc(C)cc21 -4.05%, COc1ccccc1CCNC(=O)CCCn1c(=O)c2cccn2c2cccnc21 1.46%, COc1ccc(-c2nc(CN3CCC(C(=O)NCc4ccc(F)cc4)CC3)c(C)o2)cc1OC -9.06%, CCCC(=O)Nc1nnc(SCc2cc(=O)n3cccc(C)c3n2)s1 -4.62%, CCOC(=O)c1c(C)oc2nc(C)nc(N3CCN(c4cccc(C(F)(F)F)c4)CC3)c12 -5.8%, COc1ccc(C2CC(=O)N(CC(=O)Nc3ccc(C(C)=O)cc3)c3ccccc3S2)cc1OC (stereo unspecified) -10.4%, CCCN(CCC)CCNC(=O)c1nn(C)c2c1CS(=O)(=O)c1ccccc1-2 6.53%, COc1ccc(CCC(=O)NC2CC(=O)N(c3ccccc3)C2)cc1 (stereo unspecified) -5.71%, CCOC(=O)c1c(NC(=O)/C=C/c2ccc(Cl)cc2)sc2c1CCC(C)C2 (stereo unspecified) -5.34%, Cc1ccccc1C(=O)n1nc(-c2ccco2)nc1NCc1cccs1 1.48%, COc1cc(Cl)c(C)cc1NC(=O)c1nn(C)c2c1CSc1ccccc1-2 1.77%, COc1ccc(CNC(=O)c2cc(-c3ccc(Cl)cc3)n[nH]2)cc1 -7.39%, O=C(NCc1nc(-c2ccccc2)no1)c1ccco1 -0.314%, CCn1cc(C(=O)NCCc2ccccc2)c(=O)c2cc(S(=O)(=O)N3CCc4ccccc4C3)ccc21 -1.14%, CCCN(CCC)CCCNC(=O)c1cn(C)c2ccc(S(=O)(=O)N3CCOCC3)cc2c1=O -7.39%, O=S(=O)(NCCc1csc2nc(-c3ccc(Cl)cc3)nn12)c1ccc2c(c1)OCCO2 -1.04%, COC(=O)c1ccc2c(=O)n(CCCCCC(=O)NCc3ccc(OC)cc3)c(=O)[nH]c2c1 -6.64%, COc1ccc(-c2cc(C)no2)cc1S(=O)(=O)N1CCOc2ccc(Cl)cc21 9.17%, CC(C)c1ccc(NC(=O)CN2C(=O)COc3ccc(S(=O)(=O)N4CCOCC4)cc32)cc1 -10.1%, COc1ccc(CCNc2nc(SCc3cccc(F)c3)nc3ccccc23)cc1OC 0.815%, CCC(C)NC(=O)CN1C(=O)c2cccnc2Oc2ccc(C)cc21 (stereo unspecified) -3.34%, O=C(CSc1nccn1Cc1ccc(Cl)cc1)Nc1ccc2c(c1)OCO2 -6.43%, Cc1nn(-c2ccc(N3CCOCC3)nn2)c(C)c1CCC(=O)Nc1ccc(F)cc1F -9.26%, COc1ccc(NC(=O)C2CCCN(S(=O)(=O)c3c(C)[nH]c(=O)[nH]c3=O)C2)cc1Cl (stereo unspecified) -7.57%, Cc1cc(C)cc(OCCSc2nc(-c3cccs3)nc3cc(=O)[nH]n23)c1 7.81%, CCc1cc2c(cc3c(=O)n(CC(=O)NCCc4ccccc4)ncn32)s1 -0.3%, O=C(Nc1ccc(Cl)c(C(F)(F)F)c1)C(Cc1ccccc1)NS(=O)(=O)c1cccc2nsnc12 (stereo unspecified) 3.49%, Cc1ccc(C)c(NC(=O)c2ccc3c(c2)CCN3S(=O)(=O)c2ccccc2)c1 1.83%, COc1ccc2oc(=O)c(-c3nc(-c4ccc(C)c(C)c4)cs3)cc2c1 -9.13%, CCC(Sc1nc2ncccc2o1)C(=O)Nc1cccc(C)c1 (stereo unspecified) -7.28%, CCc1ccc(C2c3c(-c4ccccc4)n[nH]c3C(=O)N2c2ccc(C(=O)O)cc2)cc1 (stereo unspecified) -19.4%, COc1cccc(-n2cc(C(=O)NCc3ccc(C)cc3)c3ccccc3c2=O)c1 -2.73%, O=C(CN1N=C(c2ccccc2)CCC1=O)NCc1ccc(F)cc1Cl 8.19%, CCCCOC(=O)c1ccc(Nc2nnc(-n3nc(C)cc3C)c3ccccc23)cc1 0%, Cc1nnc2c3ccccc3nc(Nc3cccc(O)c3)n12 -10.2%, COc1cc(C2C(C(=O)Nc3ccccc3)=C(C)Nc3nnnn32)cc(OC)c1OC (stereo unspecified) 7.41%, COc1ccc(-c2noc(CN(C(=O)c3cc(OC)c(OC)cc3OC)C(C)C)n2)cc1 2.38%, O=C(NC1CC(=O)N(c2ccc(Cl)cc2)C1)c1ccc(S(=O)(=O)N2CCOCC2)cc1 (stereo unspecified) -0.157%, CCOC(=O)c1ccc(NC(=O)c2nc(SCc3ccccc3F)ncc2Cl)cc1 -3.75%, COc1ccc(-c2noc(CSc3nc(N)cc(=O)[nH]3)n2)cc1OC -1.07%, Cc1ccc(Cl)cc1NC(=O)C1CCN(c2nc3ccccc3n3cccc23)CC1 5.2%, CCCn1c2ccccc2c2cnn(CC(=O)NCCc3ccc(C)cc3)c(=O)c21 -12.3%, CCOc1ccc2nc(N3CCCC(C(=O)NCc4ccccc4OC)C3)sc2c1 (stereo unspecified) -0.652%, Cc1ccc(/C=C/c2onc(C)c2S(=O)(=O)N2CCC(C(=O)Nc3cc(F)ccc3F)CC2)cc1 -10.9%, CCc1nn(CC(=O)NCCCOC)c(=O)c2cc3ccccc3n12 -6.08%, Cc1ccc(CN2CCCn3nc(C(=O)NCC(C)c4ccccc4)cc3C2=O)cc1 (stereo unspecified) -3.04%, COCCn1c(=O)[nH]c2cc(C(=O)Nc3cccc(C(C)=O)c3)ccc2c1=O -2.33%, Cc1cc(C)c2oc(C(=O)Nc3ccc(S(=O)(=O)Nc4nccc(C)n4)cc3)cc(=O)c2c1 0.73%, Cc1cc(C)cc(-n2ccn(Cc3ccc(F)cc3)c(=O)c2=O)c1 0.577%, CCOc1ccc(S(=O)(=O)NCCc2sc3nc(-c4ccc(C)cc4)nn3c2C)cc1 -1.18%, CCCn1c(CCC(=O)Nc2ccccc2OC)nc2cccnc21 -15.3%, COc1ccc2oc(-c3cccc(NC(=O)c4sc5c([N+](=O)[O-])cccc5c4Cl)c3)nc2c1 4.17%, Cc1cccc(C)c1Nc1c(-c2ccc(O)cc2)nc2sccn12 -29.9%, O=c1oc2ccccc2cc1-c1cn2cc(Cc3ccc(Br)cc3)sc2n1 -13.4%, O=c1c2sc3ccccc3c2n(Cc2cccc(C(F)(F)F)c2)c(=O)n1Cc1ccc(F)cc1 -4.62%, COc1ccc(NC(=O)CC2C(=O)N(c3cccc(OC)c3)C(=O)N2Cc2ccc3c(c2)OCO3)cc1 (stereo unspecified) 0.622%, Cc1ccc(-c2cn(-c3ccc(Cl)cc3)c(S(=O)(=O)CC(=O)Nc3ccccc3)n2)cc1 -20.7%, COc1ccc(S(=O)(=O)c2nnn(-c3ccc(C)c(Cl)c3)c2C)cc1 0.15%
